This is an account of results in PMC10726135.

The list shows a part of the results. At the low end of the ranking, values are background and their order means little. The protein was read in a cell extract, so binding may be indirect.

This experiment deals with T1, HNF4alpha2 (COS-7 nuclear extract) (UniProt P41235).
T1 sequence: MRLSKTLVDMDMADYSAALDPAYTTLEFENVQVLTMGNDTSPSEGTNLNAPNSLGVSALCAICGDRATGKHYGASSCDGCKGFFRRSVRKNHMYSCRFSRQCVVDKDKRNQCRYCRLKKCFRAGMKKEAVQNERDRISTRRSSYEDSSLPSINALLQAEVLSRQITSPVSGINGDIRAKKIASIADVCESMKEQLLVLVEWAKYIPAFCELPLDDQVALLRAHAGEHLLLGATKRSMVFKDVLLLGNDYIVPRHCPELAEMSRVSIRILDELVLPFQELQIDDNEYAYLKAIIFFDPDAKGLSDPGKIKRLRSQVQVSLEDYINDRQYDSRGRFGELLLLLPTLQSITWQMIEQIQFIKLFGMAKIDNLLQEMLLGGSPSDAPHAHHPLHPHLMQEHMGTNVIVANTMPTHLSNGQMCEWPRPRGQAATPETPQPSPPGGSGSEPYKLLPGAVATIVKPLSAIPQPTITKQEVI
Nature of the experiment: protein-binding microarray. The settings on record: COS-7 nuclear extract on double-stranded Agilent 4x180k PBM; binding buffer, salt, pH and temperature not given; high values mean tight binding; double strand, one strand shown; sequences stand for … in …GCCTAGGGAGATTAGAGTATCGGTCGA
Turning to GAGGCTTATTCCGTACAAGGATTCATTTCC, the binding signal (log2 normalized intensity) was -0.894.
On to GAGATCAGAGGAGGCACTTGTCTCACATCT, for which the binding signal (log2 normalized intensity) is -0.934.
For the sequence AGGCATTTCTGGAATTCTCTTCCCAACAGG, the binding signal (log2 normalized intensity) is -1.14.
With CGGCTGAGCGGCCTTCGCACCTGCCTGTCT, the binding signal (log2 normalized intensity) is -1.18.
With TCCTTTTTGGCCAGCCCCGGGAATTCTGGG, the binding signal (log2 normalized intensity) is -1.19.
Regarding TGGAAGAAGCGGTTCTGCAGGTTCATGGGA, the binding signal (log2 normalized intensity) came to 0.86.
The result for ACCACTCTTTCAGGGTGGGAAAGGAATGTA reads -0.0895; that for GGCTAATTACATCCAGAGTGGGACAAAGTT, 0.11.
In the case of GGGTCATTAATTCCCAGGAATTGGCCTGTG, the binding signal (log2 normalized intensity) was -0.031.
Take GAATGCCTGGGTCAAATTGGTGCTTTCATC: the binding signal (log2 normalized intensity) worked out at 0.658.
With TTGTATGGTTTTGTGCTAGAAAGAATGAGA, the binding signal (log2 normalized intensity) worked out at 0.943.
Turning to CCCCTTTTAATACAAGTATTATCTTCCATT, the binding signal (log2 normalized intensity) turned out to be 0.0533.
As for CCACAAAGTCTTAGCTCATTTCAGCCTTAA, the binding signal (log2 normalized intensity) is -0.629.
On to ATGCCGGCGTGACCCCCACTGCCTGCCTGC, for which the binding signal (log2 normalized intensity) was determined as 3.81.
As for GCCAAAGTTCAACCATACACACATTCCAAT, the binding signal (log2 normalized intensity) turned out to be 0.406.
Take AACCTTTGCCCCAGCTGTCACCCAGCCAGA: the binding signal (log2 normalized intensity) was 3.68.
On to AAAAGATAAGGACACAAGTGTCAGAGCAGG, for which the binding signal (log2 normalized intensity) is -1.06.
Consider TGAGTCCCCCGGCTCTACGCAAGTGGTACC, for which the binding signal (log2 normalized intensity) stood at 2.76.
In the case of TGACAAACATGTATCAGTGATAGACTAACT, the binding signal (log2 normalized intensity) is -0.909.
As to TAGAGCTGCTTACATTTTGCTCTGTTGTGT, the binding signal (log2 normalized intensity) was determined as 1.27.
Turning to CGCGTCCTCGGCTCTGCGCAGGCGCAGTCC, the binding signal (log2 normalized intensity) was -1.1.
For GTGTTGAGAATCCCTCCCCTGTGCAAACTT, the binding signal (log2 normalized intensity) was 3.12.
As for CTTCTTTGAAAGTTTGGTGGACTTTGGCCG, the binding signal (log2 normalized intensity) amounted to 9.62.
Consider TTAAGTCAAAATATAAGGTCCAACTGACAT, for which the binding signal (log2 normalized intensity) was 1.26.
The result for CTTTGAGCCAGAATCTGTCAGCTGCCTTTC reads -1.05.
TACTTATGTCTCCAGAAACCAACCTTTGAT: the binding signal (log2 normalized intensity) is 3.32.
As to CTAAGATTTATAAAGGGCAGCAAGTATTCA, the binding signal (log2 normalized intensity) stood at 0.696.
As for GCCTGGACAGATAAGAAGGGGTCAGACCAG, the figure is 1.84; as for GGCTCCTATTTCTGGCCCTGCAATTTGATT, -0.239; as for CCTGGATCTTCCAGGCCTCCAGCTCTTTTG, -1.15.
As for AGAATGTGGTTCTTTTCATTAAATATTTAA, the binding signal (log2 normalized intensity) was 1.45.
As to CTCAGAGGACCTGACATTCTCCACTTGGTG, the binding signal (log2 normalized intensity) was -1.13.
For GACCTTTGTTTTATTGTCATGCTGATATTC, the binding signal (log2 normalized intensity) worked out at 2.93.
Turning to CATCGCAGAAAGCTCTTTGCACAGTACTGA, the binding signal (log2 normalized intensity) is -1.06.
Consider GGGTTCAAGCTTGATCCAGGATCCTTCTTG, for which the binding signal (log2 normalized intensity) was -0.177.
Consider GCAGGCTCAGAACTACCAATGTTTACCAGC, for which the binding signal (log2 normalized intensity) is -1.15.
For the sequence TCCAACCCACAGGGGTAGAAGCTGAGCAGC, the binding signal (log2 normalized intensity) was -1.1.
As for TGCTTGTGTTGGAGCATTAGTTGACCATTG, the figure is 2.03; as for CAAACTATAGATTTGTGATGAGAATAAATT, -0.065.
CTAGCAAAAATCCTGCCAAACCAGTTCAAC: the binding signal (log2 normalized intensity) is -1.15.
On to TTACTCACCTGATTCAATGTCTGGAAGTTC, for which the binding signal (log2 normalized intensity) was 1.3.
As for CTTAGGGAGGGTGAAGGTCACAATTTCCAG, the binding signal (log2 normalized intensity) turned out to be 2.74.
The result for ACTGAGGCTCAATGAGGTCAATAGTCCAGA reads 4.35.
As for CTTATCAGCAGCTGGGGTGACTGATTGGAG, the figure is 1.01.
Consider ACACAGACAAAGACAGAGAGGCTTCCCTTT, for which the binding signal (log2 normalized intensity) was -1.1.
In the case of TGAAGGAACAGGTTCAGATAAGACAAGCTC, the binding signal (log2 normalized intensity) was -0.993.
Regarding GGAAAGCTGAGGCCCAGGAAGCTCCAGCGG, the binding signal (log2 normalized intensity) was -0.901.
Regarding GGCTGGGGCCCTCTTCCAGCTGAGACAAGG, the binding signal (log2 normalized intensity) was -1.1.
With GTATATCCTGACACAGGAAGGGGGATGTCT, the binding signal (log2 normalized intensity) was -0.918.
The result for CTTATCATGCTGTCTCTGAAAGCAAACAAT reads -0.84; that for AGGAGCAGGAGCAGAAGCAGGCCTCGGGCC, -1.07; that for GCCAAGGGCAGTGTTTGCCCAGCTTGAATC, -1.08.
For CGGGCACTGATAACGCCCGCCTAACCTTGA, the binding signal (log2 normalized intensity) is -1.19.
Regarding CAGCTTATCTGTCCATCCCTCACTCCTGTC, the binding signal (log2 normalized intensity) is -0.54.
Regarding GGGAATGTGGGTCCACATTCCTGATGCTAG, the binding signal (log2 normalized intensity) was 0.438.
TGTTAATGGCACTTCGTTTCAAAGTCCAGT: the binding signal (log2 normalized intensity) is 4.36.
GACACCCGCTGGCGCCATCCAAAGGCCCGA: the binding signal (log2 normalized intensity) is -1.01.
As for GGAATGGGTATAACCTTCTTCTATGCCCTC, the binding signal (log2 normalized intensity) is 2.71.
Take CAGTAAGTTTACTTCATCTAAGTGGGTCTA: the binding signal (log2 normalized intensity) is 1.24.
As for GGTGGGTGGGAAGGGATCAGAAATTGATTT, the binding signal (log2 normalized intensity) is -0.939.
For the sequence GCTGACCCTCTCCCCACCATTAACCCTACA, the binding signal (log2 normalized intensity) stood at 4.08.
Turning to TAACATCTAAGATTGGCCCTGATAATCAAT, the binding signal (log2 normalized intensity) was -0.652.
For GGGTCATGGAGCTGGAGGGCAAAGGTCAGA, the binding signal (log2 normalized intensity) was 7.97.
As for AGTGCGATGATCATGGCTCACTGCACCTTG, the binding signal (log2 normalized intensity) was 0.629.
As for AAGTTTCAGGCTATGAATGAAGTCTTTTCC, the figure is -0.256; as for AGAGACAGTGGAATCTACAGAATTCTCATG, -1.1.
As for GGGATTTTCTCAGCTCTCCTCTGCCTCCAG, the binding signal (log2 normalized intensity) was -0.806.
As for AGAAAAAAATGAGTCACAATATCAGTCTTT, the figure is -0.0465.
As to CAACTCTAGGAGCATGTCAAAAGCTAAATA, the binding signal (log2 normalized intensity) is -1.17.
In the case of CCTTCCCCTTTTTCTGTAAAGCTTTATTTT, the binding signal (log2 normalized intensity) is 1.33.
For CACCTTTACCCCCACTCTCCGCTGGCCTGT, the binding signal (log2 normalized intensity) is 4.08.
As to CAGGGGAGAGAGGCAAGATCCGAAGTCTAG, the binding signal (log2 normalized intensity) is -1.09.
